Test results published in the supplement of paper PMC10126150.
Sequences with one replicate were seen in a single cluster, so their values are uncertain.

Tested on: ATP
Assay: switch fluorescence ratio, 500 uM ATP over buffer (Cy3 cluster intensity, sum of 5 cycles each) (fold (ratio)); higher = stronger signal-on switching upon ATP binding; sequences stand for … in TCGTCGGCAGCGTCAGATGTGTATAAGAGACAGTTTTTTTTTTTTTTTTTTTTTTTTT…TC
Settings: aptamer strand: ATP DNA aptamer (quencher-CACCTGGGGGAGTATTGCGGAGGAAGG + anchor), 100 nM annealed; ATP concentration: 500 uM; one replicate
In short: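 Cy3-labelled switching-strand clusters on a modified Illumina MiSeq flow-cell were annealed to 100 nM quencher-labelled ATP aptamer, imaged in selection buffer, then imaged after 15 min with 500 uM ATP at 22 °C. Five buffer/ATP cycles ran, with NaOH stripping and re-annealing between them. The fluorescence ratio is summed target-cycle over summed buffer-cycle Cy3 intensity per cluster, averaged per switch-domain sequence. Clusters outside 100-1000 RFU were excluded.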
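Note: ATP exposure 15 min at 22 °C before imaging.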

| Sequence | switch fluorescence ratio |
| --- | --- |
| ACCGTAAGGG | 0.982 |
| CGGTCCGGAG | 1.04 |
| AAAGGTGGCC | 1.1 |
| TCGGTCCTTG | 1.02 |
| CATATGCCGG | 1.05 |
| CTGCCAATCT | 1.2 |
| AAAATAAATT | 0.943 |
| TTTCAGCTAG | 0.956 |
| CGGCCACTG | 1.01 |
| CATGAAGGGC | 1.02 |
| GAGTAAGA | 1.02 |
| TTGACTTGAG | 0.989 |
| TCTTCTTGAC | 1.03 |
| GATACTTGCA | 0.982 |
| GACGACTTTG | 1.07 |
| CAAGTTGGGA | 0.94 |
| CTAGCAGGGG | 1.22 |
| GATAAAGA | 1.02 |
| GACTCTTTAA | 1.03 |
| AGATGCTGCC | 0.983 |
| AAAGACGGGT | 0.978 |
| CGGCGACGGG | 1 |
| GAGATTCACC | 0.962 |

| Sequence | switch fluorescence ratio |
| --- | --- |
| CGGATGCAAG | 0.975 |
| TATGTAGTCC | 1.01 |
| CTGCACAAGC | 1.33 |
| TTACAATGGG | 1.03 |
| CAGATACGTT | 1.04 |
| TAAATAGCGC | 0.995 |
| GCGTTTATCG | 0.955 |
| CTGATCGAAG | 1.03 |
| AGGAGATGCT | 1.01 |
| GCCGAACCGG | 1.04 |
| ACCCCAGACT | 1.1 |
| ATTGTCATAC | 1.08 |
| TAGTATTACA | 1.04 |
| TACGTGCGA | 1.22 |
| ACTCTCCCTC | 1.23 |
| ATGCATTATC | 1.27 |
| CAAGTTGTCC | 1.03 |
| CTGCCAGGGG | 1.01 |
| ATGTATCAGT | 1.03 |
| GGCGTCTGGA | 1.04 |
| AGTGGACGGT | 0.969 |
| TAGGAATCGC | 0.988 |
| TCCTACTTT | 0.991 |

| Sequence | switch fluorescence ratio |
| --- | --- |
| TTGAAATACG | 2.86 |
| CGTTCTAACC | 1.01 |
| TACCTCGGAC | 1.12 |
| GGTCTGCCCG | 1.01 |
| GCATAATCTG | 0.965 |
| TTTGATCTTA | 1 |
| TATGAGT | 1.02 |
| GGTAACTACT | 0.994 |
| GTGAGAGGCG | 0.957 |
| ATTATGGTAC | 1.06 |
| ACGTACCCTG | 1.58 |
| TTCGGACTCG | 1.02 |
| CAACGGTACA | 1.37 |
| TAGCCAGAGC | 0.978 |
| CGCGCTTTT | 1.03 |
| AAGATGCATG | 1.02 |
| CCTATCGGAT | 1.23 |
| GGATGTTGCT | 0.956 |
| GGGACACTTA | 1.03 |
| GAGTGGGCCG | 1.01 |
| GTTGGAGACG | 0.965 |
| CCACAAGCCC | 1.68 |
| GTTACAAAGA | 1.03 |

| Sequence | switch fluorescence ratio |
| --- | --- |
| ACCGGTAAGT | 1.02 |
| ATACGGATTC | 1.03 |
| CCGGTCGGCG | 0.953 |
| ATGAAACAGT | 0.979 |
| ATTATGTCCG | 0.967 |
| TATCTGATA | 0.986 |
| GCTGGCTAGC | 0.97 |
| TGTATGGTGA | 1.04 |
| CTGATAAAAC | 1.04 |
| CGATGGCTAC | 4.42 |
| GAAAACGTTT | 1.05 |
| GGGCCTTCTG | 1.03 |
| TGGTGAGTCC | 0.965 |
| TAAGGGACGC | 1.04 |
| AATAGAATC | 1.01 |
| ATTCAGCCCG | 1.04 |
| GCAAGTCATA | 0.989 |
| CTGGGGAGTT | 0.949 |
| GTTACCAGCC | 1.15 |
| CCGAGTCGCT | 1.47 |
| TCGAGATAT | 1.04 |
| TGTCATAGG | 0.999 |
| GGAAGATCGT | 0.99 |

| Sequence | switch fluorescence ratio |
| --- | --- |
| CTAATACTAC | 1.17 |
| GAAGAAATTA | 1.04 |
| AGCTCTGCTC | 1 |
| ATACCGGGGT | 0.98 |
| CACATATCGT | 1.12 |
| GGGTACTCAA | 1.01 |
| AGTTATGCTT | 1.01 |
| CAGCTACTT | 1.24 |
| GGATGCTGCC | 1.02 |
| GCTTAGGAGG | 0.982 |
| GCCGCTGGTA | 0.96 |
| GTCGCCTTGA | 0.99 |
| TCGAAAAGGT | 0.987 |
| TAGAGGGTAT | 1.01 |
| GGAGTCCTTT | 1.01 |
| TTTGCTCTCA | 0.996 |
| GCAGTTATTG | 1 |
| AGGGTCATGG | 1.03 |
| AATATCGGGG | 0.996 |
| CGCATAGGTG | 2.36 |
| CTGGGCGCC | 1.03 |
| GGGACATTA | 1.04 |
| TCTTTCAGGC | 1.01 |

| Sequence | switch fluorescence ratio |
| --- | --- |
| AGAGGACTAA | 1.03 |
| CTGCCCAGGG | 2.41 |
| AACTTAGAGA | 1.01 |
| CATACCATT | 1.04 |
| TTATTGCTAC | 1.04 |
| GTGCTGGTTG | 0.994 |
| AATAATATGT | 1.02 |
| TGTATAACTC | 0.94 |
| GCGGCGCTGC | 1.01 |
| TCCGTATCAG | 0.978 |
| CGGTATATCT | 1.02 |
| GCCGAGTATC | 1.03 |
| GGACTAAGGT | 1 |
| TTGTACACGT | 1.08 |
| TATAAAAATG | 1.01 |
| AATCTGTAGG | 0.949 |
| TAGTTCTTA | 0.993 |
| TAGCAGCCGT | 1.02 |
| GTCATATTAC | 1.05 |
| CTAAAAGGGC | 0.945 |
| CTCGGACTGC | 1.12 |
| GAGTTGAGCA | 0.966 |
| CTTTAATTAT | 0.998 |

| Sequence | switch fluorescence ratio |
| --- | --- |
| TATCGTTAGG | 0.987 |
| ACGTCGGGAG | 0.995 |
| CGGTGCTGAG | 1.02 |
| GAGAAGGGCG | 1.03 |
| GTTCTGCGCA | 1.1 |
| GTGAGCGAGA | 0.964 |
| ATTCGTGGAG | 0.962 |
| GTGGTGGAGT | 0.95 |
| TTTAACGCGG | 0.974 |
| CCTGTGTTCA | 1.03 |
| GCCTTCACG | 1.14 |
| GGGATCCTAG | 1.01 |
| AACTGTTTTT | 0.998 |
| TTTTTACTAC | 1.04 |
| TTGTTAGCAA | 1.63 |
| CAAGGGCTAG | 1.03 |
| TCTCCCCCAC | 2.41 |
| CCATGTTTAC | 1.06 |
| TTTGCGTAG | 0.934 |
| TGCGCGGCTA | 0.987 |
